Data from the supplement of paper PMC10126150.
Sequences with one replicate were seen in a single cluster, so their values are uncertain.

These sequences were tested on ATP (assay: switch fluorescence ratio, 500 uM ATP over buffer (Cy3 cluster intensity, sum of 5 cycles each) (fold (ratio)); higher = stronger signal-on switching upon ATP binding; sequences stand for … in TCGTCGGCAGCGTCAGATGTGTATAAGAGACAGTTTTTTTTTTTTTTTTTTTTTTTTT…TC). Settings: aptamer strand: ATP DNA aptamer (quencher-CACCTGGGGGAGTATTGCGGAGGAAGG + anchor), 100 nM annealed; ATP concentration: 500 uM; one replicate.
Procedure, shortened: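 Exposure to 500 uM ATP lasted 15 min at 22 °C before imaging, and a selection-buffer image was taken beforehand, for Cy3-labelled switching-strand clusters on a modified Illumina MiSeq flow-cell annealed to 100 nM quencher-labelled ATP aptamer. Five buffer/ATP cycles were run with NaOH stripping and re-annealing between them. The fluorescence ratio per cluster is summed target-cycle over summed buffer-cycle Cy3 intensity, averaged per switch-domain sequence. Clusters outside 100-1000 RFU were excluded.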

| Sequence | switch fluorescence ratio |
| --- | --- |
| GCTTCAGTCG | 1.03 |
| GCTTCCAGCA | 0.976 |
| GCTTCCTATG | 1.53 |
| GCTTCTAGGG | 0.997 |
| GCTTCTATGA | 1.01 |
| GCTTCTCAAA | 0.989 |
| GCTTGAAAGG | 1.02 |
| GCTTGACCTT | 1.03 |
| GCTTGAGCTG | 1.02 |
| GCTTGATCAG | 1.02 |
| GCTTGATTG | 1.01 |
| GCTTGCATTA | 1.07 |
| GCTTGCCCGA | 1.03 |
| GCTTGCGTGG | 0.988 |
| GCTTGGTAAC | 1.04 |
| GCTTGGTCTG | 1.01 |
| GCTTGGTGTG | 1.01 |
| GCTTGTTTTG | 0.98 |
| GCTTTAAACT | 0.953 |
| GCTTTACGTC | 1.02 |
| GCTTTACTT | 1.03 |
| GCTTTCAGTT | 0.988 |
| GCTTTCATAC | 1.25 |
| GCTTTGGCG | 1.01 |
| GCTTTTAGGG | 0.998 |
| GCTTTTTAAG | 0.972 |

| Sequence | switch fluorescence ratio |
| --- | --- |
| GGAAAAAAGG | 0.989 |
| GGAAAACCGA | 1.09 |
| GGAAAAGATT | 1.02 |
| GGAAACGGAG | 0.995 |
| GGAAAGCTAT | 0.975 |
| GGAAAGTCG | 0.999 |
| GGAAATTGCC | 0.966 |
| GGAAATTTTA | 1.01 |
| GGAACATGT | 0.965 |
| GGAACCTGCG | 1.18 |
| GGAACGAATT | 0.984 |
| GGAACGAGTG | 0.995 |
| GGAACGGGCG | 1.03 |
| GGAACGTCC | 1.05 |
| GGAACTGCGG | 0.951 |
| GGAAGAAGTC | 1.5 |
| GGAAGCTACG | 0.981 |
| GGAAGCTGC | 0.962 |
| GGAAGGCTTG | 1.01 |
| GGAAGGGCGT | 1.02 |
| GGAAGTACCG | 1.08 |
| GGAAGTGGCC | 0.968 |
| GGAATAACAA | 0.992 |
| GGAATAAGC | 1.03 |
| GGAATACAAA | 0.979 |
| GGAATAGAAG | 0.985 |

| Sequence | switch fluorescence ratio |
| --- | --- |
| GGAATGCCGT | 1.03 |
| GGAATGGAAG | 0.996 |
| GGAATTATTC | 1.03 |
| GGAATTCCG | 0.994 |
| GGAATTGTGC | 0.985 |
| GGAATTTCAC | 1.09 |
| GGACAAGTGT | 1.01 |
| GGACAATGAA | 1.02 |
| GGACAATTAG | 1.04 |
| GGACAATTGG | 1.01 |
| GGACACAAGA | 1.03 |
| GGACAGAGCA | 1.03 |
| GGACAGTAGA | 1.03 |
| GGACAGTGG | 1.01 |
| GGACCAATTC | 1.13 |
| GGACCATCCT | 1.2 |
| GGACCCGAGA | 0.952 |
| GGACGCGAAG | 1.02 |
| GGACGGATTT | 1.06 |
| GGACGGGGCT | 0.962 |
| GGACGGTGCT | 0.979 |
| GGACGTGGAC | 1.12 |
| GGACTAGTAT | 0.938 |
| GGACTATAGC | 1 |
| GGACTATCGT | 0.954 |
| GGACTATGAA | 0.972 |

| Sequence | switch fluorescence ratio |
| --- | --- |
| GGACTCAGAT | 0.998 |
| GGACTCAGGA | 0.987 |
| GGACTCGCCA | 1.01 |
| GGACTGTGAC | 1.08 |
| GGACTTTG | 0.97 |
| GGAGAAAATC | 2.02 |
| GGAGAACGGC | 1.05 |
| GGAGAAGCAG | 1 |
| GGAGAATTCT | 0.912 |
| GGAGACTCGA | 0.996 |
| GGAGAGCAAG | 1.07 |
| GGAGATGATG | 0.987 |
| GGAGCCAAGG | 1.01 |
| GGAGCGTTGA | 1.08 |
| GGAGCTGAAA | 1.03 |
| GGAGCTGAAG | 1.03 |
| GGAGCTGGCT | 1.02 |
| GGAGCTTTTC | 1.27 |
| GGAGGAAAGA | 1 |
| GGAGGAAATA | 1.01 |
| GGAGGACTGT | 1 |
| GGAGGCTGCA | 0.939 |
| GGAGGCTTGC | 0.999 |
| GGAGGGGCTC | 1.35 |
| GGAGGTGCTA | 1.03 |
| GGAGTAATTG | 1.15 |

| Sequence | switch fluorescence ratio |
| --- | --- |
| GGAGTGTCGG | 1.01 |
| GGAGTGTCTG | 1.03 |
| GGAGTTCGAC | 0.951 |
| GGAGTTCGCT | 0.97 |
| GGAGTTTAGG | 1.01 |
| GGAGTTTCCC | 0.969 |
| GGATAATATA | 0.945 |
| GGATAGAAG | 0.975 |
| GGATAGGACG | 1.11 |
| GGATATCGGA | 0.969 |
| GGATCAAAGC | 1.04 |
| GGATCAAGA | 0.984 |
| GGATCAAGTT | 0.969 |
| GGATCATCAC | 1.01 |
| GGATCCCTCG | 1.06 |
| GGATCGATAT | 1 |
| GGATCTATAC | 1.2 |
| GGATCTGATG | 1.01 |
| GGATGAAATT | 0.999 |
| GGATGATAAG | 0.953 |
| GGATGATAGA | 1.01 |
| GGATGCGAAG | 0.974 |
| GGATGGGCGT | 0.973 |
| GGATGGTA | 1.01 |
| GGATGGTTCT | 0.998 |
| GGATGTATGT | 1.04 |

| Sequence | switch fluorescence ratio |
| --- | --- |
| GGATGTCGGT | 1.01 |
| GGATGTGGCG | 1.04 |
| GGATGTGTTG | 0.972 |
| GGATGTTTAA | 1.02 |
| GGATTCATCG | 0.966 |
| GGATTCATGC | 0.98 |
| GGATTCCTCG | 1.2 |
| GGATTCGGTC | 1.03 |
| GGATTCTTCG | 1.07 |
| GGATTGCATG | 1.01 |
| GGATTGGTGC | 0.996 |
| GGATTTATCA | 0.974 |
| GGATTTCACG | 0.987 |
| GGATTTTTGC | 1.03 |
| GGCAAAATGC | 1.02 |
| GGCAAAATGT | 0.972 |
| GGCAAACCTA | 1.04 |
| GGCAAACCTT | 2.83 |
| GGCAAGTGAT | 1.03 |
| GGCAATAGTG | 1.17 |
| GGCAATCTGT | 1.06 |
| GGCAATTTCG | 1.05 |
| GGCACCAACC | 1.08 |
| GGCACTATAG | 1.03 |
| GGCAGAGATT | 0.966 |
| GGCAGAGT | 0.934 |

| Sequence | switch fluorescence ratio |
| --- | --- |
| GGCAGCCAGG | 1.12 |
| GGCAGCCCGT | 1.01 |
| GGCAGGAATT | 1.01 |
| GGCAGGCCGT | 0.986 |
| GGCAGTGTAA | 1.02 |
| GGCATAAGGT | 1.22 |
| GGCATAATAT | 1.02 |
| GGCATAGTCA | 1.02 |
| GGCATGAGTT | 1.03 |
| GGCATGGTTG | 0.986 |
| GGCATTTAAT | 0.987 |
| GGCATTTCAG | 0.956 |
| GGCCACACAT | 1.01 |
| GGCCACCAAT | 1 |
| GGCCACCGTT | 1 |
| GGCCACGCCC | 1.03 |
| GGCCACTGTT | 1.01 |
| GGCCATATCG | 0.971 |
| GGCCCATTCT | 0.935 |
| GGCCCCATCC | 1.13 |
| GGCCCCCCAC | 1 |
| GGCCCGATCT | 0.978 |
| GGCCCGCAGG | 1.1 |
| GGCCCTAGTT | 1.03 |
| GGCCCTCGTA | 0.992 |
| GGCCCTTTGA | 0.973 |

| Sequence | switch fluorescence ratio |
| --- | --- |
| GGCCGCTCGG | 1.09 |
| GGCCGCTGGG | 1.02 |
| GGCCGGGCGG | 0.994 |
| GGCCGGTCGT | 0.979 |
| GGCCGTT | 0.974 |
| GGCCTAGCTA | 1.01 |
| GGCCTGCCGA | 1.04 |
| GGCCTGCGCT | 1.11 |
| GGCCTGTGGG | 1.01 |
| GGCCTTCTGG | 0.881 |
| GGCGAAGGA | 0.943 |
| GGCGAAGGTT | 1.05 |
| GGCGAATCTT | 1.06 |
| GGCGACATTT | 1.04 |
| GGCGATATCG | 0.926 |
| GGCGATCGGT | 1.05 |
| GGCGCAGACA | 1.04 |
| GGCGCAGCAT | 0.992 |
| GGCGCCCCTA | 1.01 |
